In the supplement of paper PMC3334620:
Whole data set: some 33,000 sequences, median “E-score (-0.5 to 0.5)” near -0.016, cut for the highest 2% near 0.31. The list shows a part of the results.

biological target: Cst6 (UniProt P40535); assay: PBM E-score (8-mer binding enrichment) (E-score (-0.5 to 0.5)); higher = stronger / more preferred TF binding; most listed sequences are background and not binding sites; conditions: protein concentration: 200 nM; construct: GST-DNA-binding domain
How it was run: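 Detection of bound protein used fluorescent anti-GST, with scans normalised by masliner. The proteins were GST-tagged yeast transcription factors applied at about 100-200 nM to universal all-10-mer Agilent arrays made double-stranded by primer extension. Each ungapped eight-base word, pooled with its reverse complement, was scored with an E-score from the Universal PBM Analysis Suite.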

Sequence	PBM E-score
GCGACGCA	0.0151
TGTACTAA	0.0422
ACGCGAAC	-0.0701
CGGGCTAC	-0.221
AGCTTTTA	0.0862
CTAACTGA	0.124
GATCAATA	0.185
CGTCCACG	0.114
CAAGTAGC	-0.0762
ATAATTCG	0.155
AATAGCAT	0.0947
AGCTCTGA	-0.0909
AGACGACC	-0.197
AAAGAAAG	0.0919
AGCGACCT	-0.179
GCTAGTCC	-0.234
AATTCTCA	0.125
AGGTGGAG	-0.172
CGATGCGA	-0.0133
GAAACAAA	0.17
CTAGCTAG	-0.074
AACCAGGT	-0.2
ACTTTCGC	0.0588
AGGGCCGC	-0.156
AACCGCGC	0.0974

Sequence	PBM E-score
GAAGTTCA	-0.0392
CGAGTATC	-0.229
GCGCCAGC	-0.294
ACAGGGGG	-0.355
AAATGGAT	-0.0183
ATCCCGGA	-0.249
CAACCAGC	-0.203
GGCTGATA	-0.0787
AGGAGCGC	-0.229
ACGAGCGG	0.0814
GTACGGAC	0.0382
GAATTACC	0.0861
GGCTGCCC	-0.361
ATCGTGGC	0.0366
GGGGATTA	-0.0687
TGCAAAAA	0.133
ATTTCTCG	0.242
CCGGTTGA	-0.078
CGTCAAAG	0.118
CCTTATAA	0.0921
TCAGCGGA	-0.0381
GTGTGGGA	-0.128
CATTCATC	0.112
CGAAAACG	0.111
AATATGTG	0.25

Sequence	PBM E-score
CACAGTCA	-0.113
ACGTACCC	0.156
CGTTTCAG	0.0741
AGCATGAG	0.0502
CATTTACC	0.133
ACAACTCG	-0.0364
ATCGAACC	0.00079
ACAGTACC	-0.101
CCAAAAGC	-0.0501
CAGGCATC	-0.213
AGCATACC	0.0269
AGGATTAT	-0.144
GCCTTATA	0.0324
AATGATCT	0.215
CGGATGGA	-0.101
GACGTCGC	0.236
CATGGGCC	-0.185
CCCAACTC	-0.0198
CAAGGTTC	-0.155
AAAACCTT	-0.0497
GACAAGAA	0.21
AAAAGATG	0.26
CAGAACCA	-0.148
CCGAGATC	-0.143
GATCGTAA	0.0065

Sequence	PBM E-score
AACGCGAT	0.00529
ATTAGAAT	0.164
CGCCAGAG	-0.259
CTGCAAAA	0.0651
ACGCATTG	0.152
ATTACAGC	0.0458
ACCGCGGT	-0.095
CCCTTCCG	-0.274
ATATATCC	0.275
AGGTAGAT	-0.162
CATTAGGA	-0.0471
GGGTGGAA	-0.0697
GGTCGTAC	-0.368
GAAGACTC	-0.142
TATTAAAA	0.323
GTGCTGAA	-0.12
GTCCCGAC	-0.167
ACCGACGA	-0.0237
ATATCGGC	0.0277
CTATCCTC	-0.198
TACCAGTA	0.105
GGAAGTAC	-0.173
ATCGAGGC	0.00232
ACGCCCGC	-0.0752
AACTTTCG	0.0454

Sequence	PBM E-score
CAACGATG	0.0278
GATGACAC	0.286
AATGGATA	-0.0788
AGGAAAAG	0.0926
CCCTCTGA	-0.136
GTCTGTCA	0.0315
CATCGTCA	0.372
GTGGGCCA	-0.128
GTTCAGCA	-0.0502
ACTGTTAA	0.162
CTCTAGAG	-0.334
AACAGTAA	-0.00645
AATCTGCG	-0.0502
ACTAGAGT	0.0316
AAAAAGTA	0.229
CCCTTTAC	-0.0551
ACAGCTCT	-0.195
TAACTCGA	0.186
AACTTGTC	0.0387
CAGTAGCG	-0.135
CTAGGTAA	-0.148
ACCGCTAG	-0.244
AAACGAGG	0.0309
ACACGTGA	0.172
TATATTAA	0.336

Sequence	PBM E-score
ACTGCGAC	-0.153
CACCTGCC	0.0858
AGATGTAT	-0.0587
ACAGAATC	-0.077
ACCTGGTG	-0.162
AAAGGAGT	-0.00521
AATCGCGG	0.0102
GGTCCAAC	-0.239
GACTGAAC	-0.182
CGTCAGGA	0.238
GATGTACA	0.0922
AATCCTGT	0.155
CAAGCTCA	-0.225
AGCGGTGG	-0.262
CGATTATA	0.0906
AAGTCCTC	-0.197
AAAGCGGC	0.151
CTCTCTTA	0.0389
CGAAGTTA	0.11
ACTTTAAA	0.201
AGACGTGG	-0.0806
AGTGCTCA	-0.115
ACCGAGGT	-0.217
CGAATAAC	0.0736
GTGTTCAA	-0.0442

Sequence	PBM E-score
GAGCCAGC	-0.299
CCTCACCG	-0.172
CCCCCGAC	-0.275
ATAGAGAG	-0.225
TGTTGCAA	0.197
TATGAGCA	-0.00511
GGTATACC	-0.00558
CACCGAGC	0.0117
GGGGACCA	-0.054
AGTGTTCC	-0.0343
CCATGCAC	-0.124
ACTTTTCC	0.158
CGTTATTC	0.0393
AGCATGTA	-0.157
GCTGAGAA	-0.143
CTTATGAC	0.368
GAATTCGA	0.0181
GGACTCAA	-0.222
ATAACGAG	-0.0387
GGAACGCA	-0.112
CACTTAGA	0.0716
GTAACAGA	0.138
CGTTACAA	0.135
CCCGCGAC	-0.209
AGTTAGCG	0.0693

Sequence	PBM E-score
CAAGCCCC	-0.293
GAGCGGCA	0.18
CAGTGACA	0.248
ATATAAAT	0.321
AACCCAAA	0.143
ACTAGCTG	0.0222
CCCGGCAG	-0.345
CAAGGATC	-0.012
ACTAGATC	-0.0949
ATGCGTGG	-0.254
ACCTAACG	0.0849
ATCCGTGA	-0.0022
ATCTAAGG	-0.0239
GACCTCGA	-0.0871
TTGAACAA	0.00179
AAAGTGTA	0.144
TCGCTTAA	0.0628
AGACCGTA	-0.199
ATGACGCG	0.463
CTCACTTA	0.0557
CGCCCTAG	-0.132
AACTGTCC	-0.28
CACGTGGA	0.0156
CTCGTAAA	-0.0847
CATGTTTC	0.214

Sequence	PBM E-score
TGATTGAA	0.124
ATTTATCA	0.227
AGGCCCGA	-0.344
ACGAAAGA	0.188
CATCCGGA	-0.0898
ACCCACCA	-0.0825
ATGTCGAA	0.037
GGGGCGGA	-0.298
TACACTCA	0.124
AATGAATG	0.27
AGACTCAA	-0.0859
CTAAAACA	0.135
CCTCGGTC	-0.348
CATTAGAG	-0.0644
CTTAGAAC	0.0812
TGTTTTAA	0.17
CGAATGGA	0.135
CATACACA	-0.0117
AATTAAAA	0.187
ATTCCCGA	-0.19
ACGTTTAC	0.0397
CCTCTTTC	-0.233
GTCCACCA	-0.221
CAGTTTGG	-0.179
GCGTGAGC	0.0338

Sequence	PBM E-score
CATTACAC	0.198
GGTTCTAA	0.104
CGATATGC	0.0678
CTCTAACA	0.00241
AAGTGGCG	0.207
CATTCTGG	-0.0615
CTGAAGGA	-0.271
AGTAGTCC	-0.194
CTCTAGTA	0.0659
AATTCTTC	0.181
ACCACGAT	0.157
GCTCGTGA	0.0506
ATTTGTGC	0.0185
CCACCTGG	-0.252
ATGTTTCG	0.263
CGTGGTAA	0.00542
ACCGCTAT	-0.128
TAAGGAGA	0.0146
ATCCACCG	-0.0635
CCCTTGAA	-0.148
ACTTTGGG	-0.0539
AAGGTACG	0.0548
CAGACTGC	0.0252
GTGAATGA	0.183
TCTAAGAA	0.241

Sequence	PBM E-score
ACAATTAC	0.249
AGACCGCG	-0.0358
ACTCGTAG	-0.251
GCCAGCGC	-0.223
AACCCCTA	-0.195
AGAGATAG	0.0685
GCCGGGCA	-0.274
ATACTTGA	-0.0602
ACTGGTTG	-0.013
AGTCAGAC	-0.193
GAAAATGC	-0.0295
CAGATACC	-0.076
AGCCGATC	-0.059
CCTATCAG	-0.144
ATCAACGG	0.256
GCAATGCA	0.0147
AGAGCCTG	-0.0561
CGCAGAGC	-0.0408
CTAACTGC	-0.0744
AACCCCCC	-0.397
ATGCCCCC	-0.258
GCATCTTA	0.15
CCTATGCG	-0.0868
AACCGTCG	-0.00516
ATCCCGCA	-0.056

Sequence	PBM E-score
CATCGTGC	0.0698
AAAAGCGA	0.00806
GTCCTTGA	-0.0279
ATTATAAG	0.182
GCTTAGGA	-0.207
CCATTACA	0.225
CGGAGCCA	-0.233
GAGGGCAC	-0.235
ACCCTTTA	0.114
ACGGCAAA	0.28
AGCCCCCC	-0.417
CAATATCG	0.0808
GAGACTAC	-0.232
CCGAAAAC	0.00987
AAGACTGA	0.033
CCAATTAC	0.181
AATGGTAG	0.166
GTCGCTGA	-0.00634
GACCACAA	-0.23
CATCAAGG	-0.0962
GTACTAAC	-0.00045
ACATACAG	0.0565
CTCCGTGA	-0.0604
ACCTACAG	-0.0445
CTTGGTGA	0.148

Sequence	PBM E-score
AATTAAGC	0.225
CCTGAGTA	-0.00474
CTGGCCGC	-0.124
CTCAGTAA	-0.0742
GAATAAGA	0.0803
AGCGATGG	-0.0842
AAATGCTG	0.102
CACAGGCC	-0.0838
GGGCACAC	-0.156
CATTTCGA	0.0934
CTGGAATC	-0.115
TCATTGAA	0.1
GAGCGGGA	-0.034
AAATTATA	0.278
CATCTGGC	0.0259
CCGGAAGG	-0.278
AACTATGC	0.155
CTTTAACC	-0.0766
ACGTTGAG	0.0822
AAGCCAAA	0.0153
CATAGCCC	-0.238
ATAAACTG	0.0725
TAGAATAA	0.184
ACACTATG	0.0583
ACTTGTAT	0.0477

Sequence	PBM E-score
GGGCAACC	-0.275
AGCTCAAG	-0.148
CTATAGGC	-0.261
CTTGAAAG	-0.112
CCACCGAG	-0.204
GCGCGAGC	-0.111
CATATTTC	0.0963
CCGATTGC	0.0379
CAACAATG	0.145
CGTTCCCA	-0.241
CCCCATAG	-0.249
GTGGACAC	-0.0948
AGCATCAG	-0.0733
ATAGTCCA	-0.143
CCGTCGAA	0.0203
AAATATTA	0.286
ACGAGGTA	-0.067
ATCAATCC	0.0761
GCACGCGA	-0.0776
